Assay results taken from PubChem BioAssay AID651820 (National Center for Advancing Translational Sciences (NCATS), 2012).
“And” between values parts separate entries of the source, which are not always exact repeats. Equal entries are not always repeated. Hit rate of the full screen: of about 340,000 compounds, about 12,000 (3.5%) were called active. The inconclusive results got no clear call from the source; some entries with a clear call stand among them for comparison. Calls follow the shape of the dose curve; as a rule, active = well fitted inhibition curve with a large enough effect; inconclusive = small, poorly fitted or top-dose-only effect, or another doubt; inactive = no such curve, though single readings can be large or run the other way. A potency beside an inconclusive call is a rough fit, not a confirmed value.
% is scaled to controls: 0 for no effect and ±100 for the full control effect; potency is read from the fitted curve at half-maximal effect; tags tell the direction and shape of the fitted curve.

Test: qHTS Assay for Inhibitors of Hepatitis C Virus (HCV)
Conditions: Huh7.5.1 HCVcc-Cre (HCVcc is cell-culture hepatitis C virus) infection, luciferase reporter, 44 h; activity change, negative = inhibition: at 41.8 µM (top of the series) unless noted
In short: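 1,000 cells/well; 4 h culture; + compound; + HCVcc-Cre (~0.5 moi); 44 h; luciferase substrate, RT 15 min; read 15 sec.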
With `Cn1c(=O)n(C)c2cc([N+](=O)[O-])c(N3CCN(C(=O)c4cccc(F)c4)CC3)cc21` the Potency was inconclusive: 31.6 µM [inhibitor, single point]. In the case of `O=C1N=C(N2CCN(c3ccccc3)CC2)S/C1=C\c1cn[nH]c1-c1ccccc1`, the “activity change, negative = inhibition” value is reported as inactive: 0.416%. For `CCc1ccccc1NC(=O)c1cc(-c2ccco2)on1`, the “activity change, negative = inhibition” value was inactive: -4.87%. With `O=C(COC(=O)c1cc[n+]([O-])cc1)Nc1ccc(Cl)cc1Cl` the “activity change, negative = inhibition” value was inactive: -7.31%. With `O=c1nc(N/N=C/C=C/c2ccccc2)cn[nH]1` the “activity change, negative = inhibition” value was inactive: 10.9%. In the case of `COc1cccc(/C=N/NC(=O)CNC(=O)/C=C\c2ccccc2)c1O`, the Potency is reported as inconclusive: 5.62 µM [inhibitor, single point]. For `COc1ccc2c(c1)[nH]c1c(C)nccc12`, the Potency was inconclusive: 3.16 µM [inhibitor, single point]. For `COc1ccccc1NS(=O)(=O)c1cc(NC(=O)C(C)NC(N)=O)ccc1N1CCCC1` (stereo unspecified), the Potency was inconclusive: 12.6 µM [inhibitor, partial curve]. In the case of `O=C(CCN1CCc2ccccc21)c1ccc2c(c1)OCCO2`, the Potency is reported as inconclusive: 7.94 µM [inhibitor, partial curve]. For `COc1ccccc1OCc1ccc(C(=O)NN)o1`, the “activity change, negative = inhibition” value was inactive: 0.0353%. In the case of `CCCC1CCc2c(sc(N)c2C(N)=O)C1` (stereo unspecified), the Potency is reported as inconclusive: 31.6 µM [inhibitor, single point]. In the case of `CCOC(=O)c1c(CN2CCN(CCO)CC2)n(C)c2cc(Br)c(OC)cc12`, the Potency is reported as active: 2.82 µM. For `CC(NC(=O)c1ccc(F)cc1)c1ccccc1` (stereo unspecified), the Potency was inconclusive: 0.794 µM [inhibitor, full curve]. For `COc1ccc(CNC(=O)c2cc(SC)ccc2Cl)cc1OC`, the Potency was inconclusive: 11.2 µM [inhibitor, partial curve]. In the case of `CCOC(=O)C1CCCCN1C(=O)CCc1nnc(-c2ccc3c(c2)OCO3)o1` (stereo unspecified), the “activity change, negative = inhibition” value is reported as inactive: 19.5%. In the case of `CC(C)c1ccc(NC(=O)C2CCN(S(=O)(=O)c3ccc4c(c3)NC(=O)CO4)CC2)cc1`, the Potency is reported as inconclusive: 22.4 µM [inhibitor, single point]. For `COc1cc2c(cc1O)CC[C@@H]1[C@@H]2CC[C@]2(C)[C@@H](O)CC[C@@H]12`, the Potency was inconclusive: 5.01 µM [inhibitor, full curve]. With `CCOC(=O)C1CCN(C2CCN(Cc3nc(-c4ccccc4)no3)CC2)CC1` the Potency was inconclusive: 31.6 µM [inhibitor, single point]. With `CCCCN1C2=NCCCN2c2cc(C)c(C)cc21` the Potency was inconclusive: 31.6 µM [inhibitor, single point]. In the case of `COc1cc(OC)cc(-c2c(-c3ccc(F)cc3)c3cc(-c4ccc5cc[nH]c5c4)ccc3n2C)c1`, the Potency is reported as active: 10 µM. With `CN(C)C(=O)c1ccc(NC(=O)COC(=O)C2(c3ccccc3)CCCC2)cc1` the Potency was inconclusive: 22.4 µM [inhibitor, single point]. In the case of `COC(=O)c1ccc(-c2ccc(/C=N/N3C(=O)C4C5C=CC(C6CC56)C4C3=O)o2)cc1` (stereo unspecified), the Potency is reported as inconclusive: 10 µM [inhibitor, partial curve]. For `O=C(COc1ccccc1C(=O)c1cnn(-c2ccccc2)c1)Nc1ccccc1`, the Potency was inconclusive: 35.5 µM [inhibitor, partial curve, poor fit] and inconclusive: 31.6 µM [inhibitor, single point]. For `CCCCn1c(N)c(C(=O)NCc2cccs2)c2nc3ccccc3nc21`, the Potency was inconclusive: 31.6 µM [inhibitor, single point]. With `O=C(O)c1cn(C2CC2)c2cc(N3CCN(S(=O)(=O)c4ccc5c(c4)OCCO5)CC3)c(F)cc2c1=O` the Potency was inconclusive: 14.1 µM [inhibitor, single point]. In the case of `COc1cc(NC(=O)c2cccs2)c(OC)cc1NC(=O)CCC(=O)Nc1ccc(C)cc1`, the “activity change, negative = inhibition” value is reported as inactive: 9.16%. For `CCN(CC)CCOC(=O)C1(c2ccc([N+](=O)[O-])cc2)CCCC1`, the Potency was inconclusive: 2.82 µM [inhibitor, partial curve]. With `CCN(C(=O)c1cc2c(=O)[nH]c3ccc(C)cc3c2s1)c1ccccc1C` the Potency was inconclusive: 2 µM [inhibitor, partial curve]. With `CCn1cc(SCC(=O)NCc2ccc3c(c2)OCO3)c2ccccc21` the Potency was active: 10 µM. For `N#Cc1ccc(C(=O)Nc2cc(-c3ccc(F)cc3)nn2-c2ccccc2)cc1`, the Potency was inconclusive: 7.94 µM [inhibitor, partial curve]. For `CN(C)CCCNC(=O)c1ccc(Cl)c(S(=O)(=O)N(C)c2ccccc2)c1`, the Potency was inconclusive: 11.2 µM [inhibitor, partial curve]. In the case of `Cc1ccnc(N2CCN(C(=O)CSc3nc4ccccc4nc3N3CCCCC3)CC2)c1`, the Potency is reported as inconclusive: 31.6 µM [inhibitor, single point] and inconclusive: 4.47 µM [inhibitor, full curve]. For `CCOC(=O)c1ccc(NC(=O)N2CCN(c3ccccc3OC)CC2)cc1`, the Potency was inconclusive: 10 µM [inhibitor, partial curve]. With `O=c1c2ccccc2nc(COc2ccccc2)n1/N=C/c1cn[nH]c1-c1ccccc1` the Potency was inconclusive: 28.2 µM [inhibitor, single point]. For `CN(Cc1cn(C)nc1-c1ccccc1F)CC1CCN(Cc2ccccc2)CC1`, the Potency was inconclusive: 10 µM [inhibitor, partial curve]. In the case of `CN(c1ccc(F)cc1)S(=O)(=O)c1ccc(Cl)c(C(=O)NCC(c2ccco2)N2CCCCC2)c1` (stereo unspecified), the Potency is reported as inconclusive: 3.55 µM [inhibitor, partial curve]. With `Cc1cc(-n2c(C)cc(C(=O)CN3C(=O)NC4(CCCCC4)C3=O)c2C)no1` the Potency was “inactive”. For `NC(=O)c1c(NC(=O)c2c(F)cccc2F)sc2c1CCN(Cc1ccccc1)C2`, the Potency was inconclusive: 14.1 µM [inhibitor, partial curve]. In the case of `COC(=O)c1cnn(-c2nc(-c3ccccc3)cs2)c1N`, the Potency is reported as inconclusive: 5.62 µM [inhibitor, full curve, poor fit]. In the case of `CCOC(=O)c1ccc(NC(=O)COc2ccccc2CNCCc2ccccc2)cc1`, the Potency is reported as inconclusive: 15.8 µM [inhibitor, single point]. With `CCCCn1c(O)c(N=NC(=O)Cn2c(C(F)(F)F)nc3ccccc32)c2ccccc21` the Potency was inconclusive: 2.51 µM [inhibitor, full curve].
